{
  "source": "paper PMC4336329",
  "about": "(PLoS ONE, 2015)",
  "note": "The whole screen tested about 310,000 compounds, of which about 2,200 (0.71%) showed an effect of 50% or more. Effects have a minus sign here. Some of the results follow.",
  "data": [
    {"molecular_target": "human ether-à-go-go-related gene (hERG) potassium channel (human, UniProt Q12809)", "sequence (Q12809 whole entry, looked up)": "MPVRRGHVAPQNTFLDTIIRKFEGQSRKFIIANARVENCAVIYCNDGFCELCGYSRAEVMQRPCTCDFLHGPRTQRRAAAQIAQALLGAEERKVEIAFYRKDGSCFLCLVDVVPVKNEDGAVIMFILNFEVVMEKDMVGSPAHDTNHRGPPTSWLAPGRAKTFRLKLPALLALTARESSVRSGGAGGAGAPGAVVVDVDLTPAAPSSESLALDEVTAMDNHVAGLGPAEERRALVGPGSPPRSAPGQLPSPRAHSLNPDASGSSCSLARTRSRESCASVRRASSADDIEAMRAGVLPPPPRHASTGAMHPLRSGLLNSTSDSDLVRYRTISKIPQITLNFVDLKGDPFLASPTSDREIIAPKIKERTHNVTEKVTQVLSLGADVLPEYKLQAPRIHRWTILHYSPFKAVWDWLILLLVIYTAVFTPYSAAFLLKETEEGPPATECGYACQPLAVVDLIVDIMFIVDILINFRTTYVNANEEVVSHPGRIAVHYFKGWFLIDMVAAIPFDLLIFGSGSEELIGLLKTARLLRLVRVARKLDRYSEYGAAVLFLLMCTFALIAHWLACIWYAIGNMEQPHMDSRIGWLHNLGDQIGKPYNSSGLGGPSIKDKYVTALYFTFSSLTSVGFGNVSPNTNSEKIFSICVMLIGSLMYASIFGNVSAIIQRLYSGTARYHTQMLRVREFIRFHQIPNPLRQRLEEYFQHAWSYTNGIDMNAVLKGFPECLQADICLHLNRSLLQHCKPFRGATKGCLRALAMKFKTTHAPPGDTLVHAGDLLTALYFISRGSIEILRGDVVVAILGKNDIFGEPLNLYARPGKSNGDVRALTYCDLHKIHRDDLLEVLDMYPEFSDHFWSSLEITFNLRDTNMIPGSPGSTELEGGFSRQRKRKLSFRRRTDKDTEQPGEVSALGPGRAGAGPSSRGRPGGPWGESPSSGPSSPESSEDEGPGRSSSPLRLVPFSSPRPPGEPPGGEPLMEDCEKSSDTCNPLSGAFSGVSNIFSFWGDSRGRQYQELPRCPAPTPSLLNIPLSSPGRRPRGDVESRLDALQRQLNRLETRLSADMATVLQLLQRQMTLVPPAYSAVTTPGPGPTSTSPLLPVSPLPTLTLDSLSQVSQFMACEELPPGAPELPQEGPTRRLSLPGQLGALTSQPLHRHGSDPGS", "test": "primary screen, population patch clamp on CHO cells stably expressing hERG", "units": {"hERG current change (%, negative = inhibition) at 1uM": "%"}, "values": [
      {"smiles": "Cc1ccccc1Nc1nc(N)nc(COC(=O)c2ccc(O)cc2)n1", "hERG current change (%, negative = inhibition) at 1uM": 9.95},
      {"smiles": "Cc1ccccc1CS(=O)(=O)c1ccc(C(=O)N2CCC(C)CC2)cc1[N+](=O)[O-]", "hERG current change (%, negative = inhibition) at 1uM": 0.513},
      {"smiles": "CC(C)CCOc1ccc(C2CC(=O)N(C)C2=O)cc1", "note": "(stereo not shown)", "hERG current change (%, negative = inhibition) at 1uM": 2.07},
      {"smiles": "Cc1ccc(C)c(NC(=O)CN(C)C(=O)c2cc3ccccc3o2)c1", "hERG current change (%, negative = inhibition) at 1uM": 10.3},
      {"smiles": "COc1ccccc1C(=O)NCC(=O)NCCc1ccc(Cl)cc1", "hERG current change (%, negative = inhibition) at 1uM": 5.01},
      {"smiles": "O=C(CCN1CCOCC1)NNC(=O)Nc1cccc(C(F)(F)F)c1", "hERG current change (%, negative = inhibition) at 1uM": 13.7},
      {"smiles": "CCCCOC(=O)Cn1c(=O)oc2ccc(C)cc21", "hERG current change (%, negative = inhibition) at 1uM": 14.6},
      {"smiles": "N=c1oc2ccc([N+](=O)[O-])cc2cc1C(=O)NCc1ccccc1", "hERG current change (%, negative = inhibition) at 1uM": 10.6},
      {"smiles": "[O-][n+]1ccccc1/C=C/c1ccccc1", "hERG current change (%, negative = inhibition) at 1uM": 11.9},
      {"smiles": "CC(C)n1cc(CN2CCC(C(=O)Nc3cccc(-c4cccc(Cl)c4)c3)CC2)cn1", "hERG current change (%, negative = inhibition) at 1uM": -30.5},
      {"smiles": "COc1ccc(N2CCN(S(=O)(=O)c3c(C)[nH]c(C)c3C(=O)N3CCCCC3)CC2)cc1", "hERG current change (%, negative = inhibition) at 1uM": 11.7},
      {"smiles": "CN1CCN(CC(C)(C)NS(=O)(=O)c2ccc(Cl)cc2)CC1", "hERG current change (%, negative = inhibition) at 1uM": -8.14},
      {"smiles": "CCN(CC)C(=O)c1ccc(NC(=O)c2cn(-c3ccccc3)nc2-c2ccc(OC)cc2)cc1", "hERG current change (%, negative = inhibition) at 1uM": 7.99},
      {"smiles": "N#Cc1c2n(c3c(=O)n(CC(=O)c4ccc(Br)cc4)cnc13)CCCC2", "hERG current change (%, negative = inhibition) at 1uM": 1.58},
      {"smiles": "Cc1ccc(S(=O)(=O)NCCCN2CCOCC2)cc1C", "hERG current change (%, negative = inhibition) at 1uM": 12.3},
      {"smiles": "CCOc1ccccc1-c1nnc(SCC(=O)NC2CC2)n1CC", "hERG current change (%, negative = inhibition) at 1uM": 13},
      {"smiles": "CC(=O)Nc1nnc(SCC(=O)NCC2CCCO2)s1", "note": "(stereo not shown)", "hERG current change (%, negative = inhibition) at 1uM": 13.6},
      {"smiles": "CCOc1ccc(S(=O)(=O)N2CCCC(C(=O)N3CCOCC3)C2)cc1C", "note": "(stereo not shown)", "hERG current change (%, negative = inhibition) at 1uM": 9.59},
      {"smiles": "CC(C)CC(COCc1cccc(Cl)c1)N1CCN(C(=O)c2ccc(C(F)(F)F)cc2)CCC1=O", "note": "(stereo not shown)", "hERG current change (%, negative = inhibition) at 1uM": 4.93},
      {"smiles": "CCCCC(O)(c1ccc(OC)cc1)C(CN1CCOCC1)c1ccccc1.Cl", "note": "(stereo not shown)", "hERG current change (%, negative = inhibition) at 1uM": 5.77},
      {"smiles": "CCC(C)C(NC(=O)C1CCC(C)CC1)C(=O)NCc1cccnc1", "note": "(stereo not shown)", "hERG current change (%, negative = inhibition) at 1uM": 11.9},
      {"smiles": "O=C(N/N=C1\\CCc2ccccc21)c1ccc(O)cc1", "hERG current change (%, negative = inhibition) at 1uM": 10.7},
      {"smiles": "Cc1c(Cl)cccc1NC(=S)NCC(c1cccnc1)N(C)C", "note": "(stereo not shown)", "hERG current change (%, negative = inhibition) at 1uM": 1.57},
      {"smiles": "O=C(c1cc(C2CC2)on1)N1CCN(c2ccccc2)CC1", "hERG current change (%, negative = inhibition) at 1uM": 9.68},
      {"smiles": "O=C(CCNS(=O)(=O)c1cccc(C(F)(F)F)c1)NC1CC1", "hERG current change (%, negative = inhibition) at 1uM": 7.76},
      {"smiles": "OC1CCN(c2ncnc3nc[nH]c23)CC1", "hERG current change (%, negative = inhibition) at 1uM": -4.1},
      {"smiles": "Cc1cc(C(=O)c2cccs2)c(N)s1", "hERG current change (%, negative = inhibition) at 1uM": 5.02},
      {"smiles": "Cc1nc2ccccc2c(=O)n1NC(=O)c1cncc(Br)c1", "hERG current change (%, negative = inhibition) at 1uM": 22.4},
      {"smiles": "S=C(NCC1COc2ccccc2O1)Nc1ccc(Br)cc1", "note": "(stereo not shown)", "hERG current change (%, negative = inhibition) at 1uM": 6.55},
      {"smiles": "O=C(COc1ccc2ccc(=O)oc2c1)OCc1ccccc1", "hERG current change (%, negative = inhibition) at 1uM": 11.1},
      {"smiles": "CCCCn1c(SCC(=O)c2ccc3c(c2)OCCO3)nnc1-c1ccoc1C", "hERG current change (%, negative = inhibition) at 1uM": -1.11},
      {"smiles": "Cc1ccccc1-c1nsc(SCC(=O)NCc2ccc3c(c2)OCO3)n1", "hERG current change (%, negative = inhibition) at 1uM": 3.11},
      {"smiles": "COc1cccc(C(=O)NC2=NCCS2)c1", "hERG current change (%, negative = inhibition) at 1uM": 12.6},
      {"smiles": "CCOc1cc(/C=C/C(=O)NCCc2ccc(S(N)(=O)=O)cc2)ccc1OCC(C)C", "hERG current change (%, negative = inhibition) at 1uM": 11.5},
      {"smiles": "COc1ccccc1Nc1nc2ccc(C)cc2n2cnnc12", "hERG current change (%, negative = inhibition) at 1uM": 5.54},
      {"smiles": "CCCCNc1c(C(=O)OCC)c(C)nc2c1cnn2CC", "hERG current change (%, negative = inhibition) at 1uM": -3.96},
      {"smiles": "CC(C)C(C(=O)Nc1ccc(S(N)(=O)=O)cc1)N1C(=O)c2ccccc2C1=O", "note": "(stereo not shown)", "hERG current change (%, negative = inhibition) at 1uM": 15.2},
      {"smiles": "COC(=O)CSc1nnc([C@H](CC(C)C)NC(=O)OC(C)(C)C)o1", "hERG current change (%, negative = inhibition) at 1uM": -12.4},
      {"smiles": "CCn1cc(CNC(=O)/C=C/c2cnn(C)c2)c(C)n1", "hERG current change (%, negative = inhibition) at 1uM": 10.6},
      {"smiles": "COc1ccc(CNC(=O)[C@@H]2CC=C[C@@H]3CCN(Cc4ccc(Cl)c(Cl)c4)C(=O)[C@@H]32)cc1", "hERG current change (%, negative = inhibition) at 1uM": 13.3},
      {"smiles": "Brc1ccc2nc3c(n2c1)CCCC3", "hERG current change (%, negative = inhibition) at 1uM": -6.31},
      {"smiles": "CCc1ccc2c(c1)c(N=NC1=NC(=O)CS1)c(O)n2C", "hERG current change (%, negative = inhibition) at 1uM": 6.8},
      {"smiles": "CCOC(=O)C1=C(O)/C(=C/N(C)C)N=C1C", "hERG current change (%, negative = inhibition) at 1uM": 4.23},
      {"smiles": "CCc1ccccc1N(C(=O)c1snc(C(N)=O)c1N)C(C(=O)NCC1CCCO1)c1ccc(C)o1", "note": "(stereo not shown)", "hERG current change (%, negative = inhibition) at 1uM": -7},
      {"smiles": "CCOC(=O)c1cc(C#N)c(N2CCNCC2)nc1C(F)(F)F", "hERG current change (%, negative = inhibition) at 1uM": 8.53},
      {"smiles": "CCOC(=O)c1sc(-c2cccs2)nc1C", "hERG current change (%, negative = inhibition) at 1uM": 7.51}
    ]}
  ]
}
